Laboratory results reported in PubChem BioAssay AID504832 (National Center for Advancing Translational Sciences (NCATS), 2011).
In all, about 310,000 compounds went through this assay and about 18,000 (5.8%) were called active. This list was built around the results that the source calls inconclusive (neither active nor inactive); the mix of calls is not that of the screen. Calls follow the shape of the dose curve; as a rule, active = well fitted inhibition curve with a large enough effect; inconclusive = small, poorly fitted or top-dose-only effect, or another doubt; inactive = no such curve, though single readings can be large or run the other way. Potencies of inconclusive entries are left out as doubtful fits.

assay: Primary qHTS for delayed death inhibitors of the malarial parasite plastid, 48 hour incubation; settings: P. falciparum luciferase growth in erythrocytes; series mostly up to 28.7 µM; activity change, negative = inhibition: at the top concentration
Summary of the method: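 Erythrocytes infected with P. falciparum carrying an integrated firefly luciferase reporter (2% hematocrit, 0.1% parasitemia final) were exposed to compounds in RPMI 1640 with 0.5% Albumax at 37 C, 5% CO2. Growth inhibition was scored as reduced luminescence.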
% is scaled to controls: 0 for no effect and ±100 for the full control effect; potency is read from the fitted curve at half-maximal effect; tags tell the direction and shape of the fitted curve.

SMILES | Potency | activity change, negative = inhibition
COc1ccc(CC(=O)Nc2nccs2)cc1OC | inconclusive [inhibitor, single point] | –
O=C(CCCOc1ccccc1)N1CCN(S(=O)(=O)c2ccccc2)CC1 | – | inactive: -23.9%
Cc1c[nH]c2cccc(OCC(CNC(C)(C)C)OC(=O)c3ccccc3)c12 (configuration not stated) | inconclusive [inhibitor, single point] | –
CCCS(=O)(=O)N1CCC(C(=O)NC2CCCC(C)C2C)CC1 (configuration not stated) | – | inactive: 16.7%
CCc1ccc(NS(=O)(=O)c2cc3c4c(c2)CCN4C(=O)CC3)cc1 | inconclusive [inhibitor, single point] | –
O=C(NC1CC1)C1=C[C@@H](C2CCCCC2)C[C@@H](OCc2ccc(CO)cc2)O1 | inconclusive [inhibitor, full curve, poor fit] | –
CC1C(=O)N2CCCc3cc(NC(=O)C(=O)NCc4ccccn4)cc1c32 (configuration not stated) | – | inactive: -12.9%
Cc1nn(C)c(C)c1CNC(=O)c1nn2c(c1Cl)NC(c1cccs1)CC2C(F)(F)F (configuration not stated) | inconclusive [inhibitor, single point] | –
COc1ccccc1C(c1nnnn1CCc1ccccc1)N1CCCCCC1 (configuration not stated) | inconclusive [inhibitor, partial curve] | –
CCCC(=O)Nc1sc2c(c1C#N)CCCCC2 | – | inactive: 101%
CCC(C)NC(=O)/C(=C/c1ccco1)c1ccccc1 (configuration not stated) | inconclusive [inhibitor, partial curve] | –
COc1ccc(-c2nnc3ccc(SCC(=O)Nc4nc5ccccc5s4)nn23)cc1OC | active: 8.28 µM | –
Cc1ccc(Oc2ccc(Cl)cc2N)cc1 | – | inactive: 51.9%
CC1CCN(Cc2c(O)ccc3c(=O)c(-c4nc5ccccc5s4)c(N)oc23)CC1 | active: 0.262 µM | –
Cc1ccc(-c2c(C(=O)N/N=C/C3CC=CCC3)nnn2-c2nonc2N)cc1 (configuration not stated) | inconclusive [inhibitor, single point] | –
COc1ccc(C(=O)Nc2ccc(-c3nnn(CC(=O)N4CCN(C(=O)c5ccco5)CC4)n3)cc2)cc1 | inconclusive [inhibitor, partial curve] | –
CCn1c(CNC(=O)c2cc(OC)c(OC)c(OC)c2)cc2ccccc21 | active: 9.28 µM | –
Cc1ccc(C(=O)N2CCCc3ccccc32)c(F)c1F | – | inactive: -19.1%
Cc1cc(C)nc(Nc2n[nH]c(-c3cccc4ccccc34)n2)n1 | inconclusive [inhibitor, partial curve] | –
CCOc1ccc(-c2nc(C#N)c(NCC(C)C)o2)cc1 | inconclusive [inhibitor, single point] | –
CC(C)CN(C(=O)CN1C(=O)NC(c2ccccc2)(c2ccccc2)C1=O)C1CCS(=O)(=O)C1 (configuration not stated) | inconclusive [inhibitor, partial curve, poor fit] | –

SMILES | Potency | activity change, negative = inhibition
CN(CC(=O)Nc1ccccc1Cl)C(=O)c1cccc(S(=O)(=O)N2CCN(Cc3ccccc3)CC2)c1 | inconclusive [inhibitor, single point] | –
COc1ccc(CN2C(=O)CCCc3ccccc32)cc1 | inconclusive [inhibitor, partial curve, poor fit] | –
NC(=O)c1ccc(-n2nnnc2SCC(=O)Nc2ccccc2-c2ccccc2)cc1 | inconclusive [inhibitor, single point] | –
Cc1ccc(N=C2C(=O)Nc3ccccc32)cc1 | – | inactive: 22.8%
O=C(NNC1=NCCCCC1)c1cccc([N+](=O)[O-])c1 | – | inactive: 1.11%
COc1ccc(N(C(C)C(=O)N2CCC(Cc3ccccc3)CC2)S(C)(=O)=O)cc1 (configuration not stated) | inconclusive [inhibitor, single point] | –
O=C(Nc1ccc(Br)c(C(F)(F)F)c1)c1ccc(C(F)(F)F)cc1 | inconclusive [inhibitor, full curve] | –
CCCCc1cc(=O)oc2cc(C)cc(OCC(=O)NCc3cccnc3)c12 | active: 10.4 µM | –
CCN1C(=NCc2ccco2)N[C@@H](c2cccc(C(F)(F)F)c2)C(C(=O)OC)=C1C | inconclusive [inhibitor, partial curve, poor fit] | –
O=C(Nc1ccncc1)c1ccc([N+](=O)[O-])cc1Cl | inconclusive [inhibitor, partial curve, poor fit] | –
CN(C)c1ccc(-c2noc(C3CCN(S(=O)(=O)c4cccc(Cl)c4)CC3)n2)cc1 | inconclusive [inhibitor, single point] | –
CC(=O)Nc1ccc(OS(=O)(=O)c2ccc(C(C)(C)C)cc2)cc1 | – | inactive: -1.41%
Cc1ccc(C(=O)NC(=S)Nc2ccccc2N2CCOCC2)cc1C | inconclusive [inhibitor, single point] | –
CC(=O)N[C@@H](Cc1c[nH]c2ccccc12)C(=O)NC1CCCc2ccccc21 (some centres not stated) | inconclusive [inhibitor, partial curve, poor fit] | –
CCN(C1CCCCC1)S(=O)(=O)c1ccc(S(=O)(=O)N2CCN(CCC#N)CC2)cc1 | inconclusive [inhibitor, partial curve, poor fit] | –
Cc1ccc(S(=O)(=O)N2CC(C)N(S(C)(=O)=O)C2)cc1 (configuration not stated) | – | inactive: 8.27%
CCC1=C(OC(=O)N(CC)CC)N2C(=O)OC(=NCc3ccccc3)[C@]2(C)[C@H]2C1=CC[C@H]1C(=O)N(CC)C(=O)[C@H]12 | active: 11.7 µM | –
COc1ccc([C@]23Cc4cc(OC)c(OC)cc4C(O2)C2=C(CC(C)(C)CC2=O)O3)cc1 | inconclusive [inhibitor, single point] | –
O=C(O)CSCC(=O)N1CCN(c2ccnc3cc(Cl)ccc23)CC1 | inconclusive [inhibitor, full curve, poor fit] | –
Cc1ccc(N(Cc2cc3ccc(C)cc3[nH]c2=O)C(=O)c2ccco2)c(C)c1 | inconclusive [inhibitor, partial curve, poor fit] | –
CCCCN1C(Nc2ccccc2)=NC[C@@H]1Cc1ccccc1 | inconclusive [inhibitor, partial curve, poor fit] | –
